# Assay results published in the BET-seq Pho4 binding data (Le et al. 2018).
# This is one part of the list. The energies were worked out here from pooled read counts, against the library average; single values are noisy.
# Biological target: T1, Pho4 (S. cerevisiae) (UniProt P07270)
# T1 sequence: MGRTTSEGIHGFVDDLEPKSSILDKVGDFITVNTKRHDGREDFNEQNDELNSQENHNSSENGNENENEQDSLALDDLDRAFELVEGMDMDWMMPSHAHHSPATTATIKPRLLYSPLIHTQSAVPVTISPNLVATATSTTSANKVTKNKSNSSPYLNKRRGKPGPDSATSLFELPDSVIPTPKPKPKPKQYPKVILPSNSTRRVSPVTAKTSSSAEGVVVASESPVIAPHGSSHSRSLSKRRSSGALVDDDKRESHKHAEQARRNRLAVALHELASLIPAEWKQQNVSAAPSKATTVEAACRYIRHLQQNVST
# Assay: relative binding free energy (BET-seq); higher = weaker binding
# Conditions: reference: library average
row,Sequence,relative binding free energy
1,GAATTCACGTGTTTTT,0.23 kcal/mol
2,AAGATCACGTGTTTAA,0.16 kcal/mol
3,CGGGTCACGTGTAAGG,0.25 kcal/mol
4,ACGGTCACGTGGATAG,0.06 kcal/mol
5,TTAGTCACGTGGTTAG,0.1 kcal/mol
6,TGGGGCACGTGTATTG,-0.01 kcal/mol
7,TGTGTCACGTGCGAGT,0.17 kcal/mol
8,CTTGTCACGTGTGGTT,0.17 kcal/mol
9,TACTACACGTGGGTTA,-0.07 kcal/mol
10,GATATCACGTGCAGTT,0.3 kcal/mol
11,ACGTTCACGTGTGGGC,0.26 kcal/mol
12,GTAGGCACGTGTCGAT,0.02 kcal/mol
13,GATTCCACGTGTAGGG,0.13 kcal/mol
14,TGGGTCACGTGAGGAG,0.33 kcal/mol
15,GATGCCACGTGTTGTT,0.03 kcal/mol
16,GAAATCACGTGTATGG,0.19 kcal/mol
17,TTAGTCACGTGCGGAG,-0.02 kcal/mol
18,AGTATCACGTGATATG,0.13 kcal/mol
19,GTATGCACGTGATCGG,0.03 kcal/mol
20,TCTGACACGTGTTAGG,0.1 kcal/mol
21,GTAAGCACGTGTAGTA,-0.01 kcal/mol

row,Sequence,relative binding free energy
1,GGCAGCACGTGGGATG,-0.07 kcal/mol
2,CTTTACACGTGAGGAT,0.37 kcal/mol
3,TAATACACGTGTGAGT,0.16 kcal/mol
4,ATTTTCACGTGAGGCA,0.34 kcal/mol
5,GCTAGCACGTGAGGTG,-0.01 kcal/mol
6,TTACTCACGTGGGGTG,-0.04 kcal/mol
7,TTGGCCACGTGGGTGA,-0.23 kcal/mol
8,TAAAACACGTGAAGTG,0.33 kcal/mol
9,CCTGACACGTGTGTGT,0.03 kcal/mol
10,TGAGGCACGTGGAGGA,-0.12 kcal/mol
11,TGATTCACGTGGTAAT,0.26 kcal/mol
12,GCGGGCACGTGAGATG,0.17 kcal/mol
13,GCTTTCACGTGGGTTT,0.35 kcal/mol
14,TTCTTCACGTGGGGCG,0.12 kcal/mol
15,GGCAACACGTGGGTGA,-0.14 kcal/mol
16,GGATACACGTGTTTAT,-0.11 kcal/mol
17,GCATACACGTGGAGGG,0.03 kcal/mol
18,GTGAGCACGTGAAGGC,0.29 kcal/mol
19,TTTGTCACGTGCTTTG,0.09 kcal/mol
20,TGCTGCACGTGGGTCA,-0.2 kcal/mol
21,CGTTCCACGTGGTGGG,-0.17 kcal/mol

row,Sequence,relative binding free energy
1,TTGGTCACGTGTTTAG,0.17 kcal/mol
2,TATGTCACGTGACAGG,0.2 kcal/mol
3,AGGCACACGTGGTTTT,-0.04 kcal/mol
4,ACATGCACGTGGGCGT,-0.1 kcal/mol
5,TATGGCACGTGTTCGT,-0.09 kcal/mol
6,TTCTTCACGTGTGCTT,0.31 kcal/mol
7,ATGATCACGTGTTTCT,0.18 kcal/mol
8,CATGGCACGTGGTGGG,-0.15 kcal/mol
9,GAGGGCACGTGGGACG,-0.18 kcal/mol
10,GCGTACACGTGGTTAT,0.06 kcal/mol
11,GTTTTCACGTGACTAG,0.38 kcal/mol
12,GTGGTCACGTGAAGGT,0.37 kcal/mol
13,ACTTGCACGTGTAGTA,0.05 kcal/mol
14,AGTTGCACGTGTTCAA,0.16 kcal/mol
15,ATATGCACGTGAGGAT,0.2 kcal/mol
16,ATTTTCACGTGGATCG,0.31 kcal/mol
17,ATGGTCACGTGGGCCG,-0.08 kcal/mol
18,GAATTCACGTGGAATG,0.32 kcal/mol
19,TCTATCACGTGGGCTG,0.07 kcal/mol
20,CGGCTCACGTGGGGTA,0.06 kcal/mol
21,TGAAGCACGTGGAAGA,0.12 kcal/mol
